“And” between values parts separate entries of the source, which are not always exact repeats. Equal values may be shown once. The list shows a part of the results. Shown are side measurements of this screen, not its main read-out; they come without a call.
Legend:
Assay in all cases: Primary Screen for Target Class Profiling of Small Molecule Inhibitors of Methyltransferases
[1] = target: Glycine N-methyltransferase (Homo sapiens) (UniProt Q14749); details: purified enzyme, MTase-Glo SAH luminescence; measured here: GNMT inhibition; at 40 µM; stronger effect = lower value
Procedure, shortened: (§1)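 Each enzyme was assayed with SAM and its substrate. SAH formation detected by MTase-Glo luminescence; single-point 40 uM screen[…].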

[2] = target: Guanidinoacetate N-methyltransferase (Homo sapiens) (UniProt Q14353); details: purified enzyme, MTase-Glo SAH luminescence; measured here: GAMT inhibition; at 40 µM; stronger effect = lower value
Procedure, shortened: as §1

[3] = target: Histamine N-methyltransferase (Homo sapiens) (UniProt P50135); details: purified enzyme, MTase-Glo SAH luminescence; measured here: HNMT inhibition; at 40 µM; stronger effect = lower value
Procedure, shortened: as §1

[4] = target: Nicotinamide N-methyltransferase (Homo sapiens) (UniProt P40261); details: purified enzyme, MTase-Glo SAH luminescence; measured here: NNMT inhibition; at 40 µM; stronger effect = lower value
Procedure, shortened: as §1

[5] = target: Phenylethanolamine N-methyltransferase (Homo sapiens) (UniProt P11086); details: purified enzyme, MTase-Glo SAH luminescence; measured here: PNMT inhibition; at 40 µM; stronger effect = lower value
Procedure, shortened: as §1
On the % scale 0 is the no-effect control and ±100 the full control effect.

SMILES	activity change, negative = inhibition [1]	activity change, negative = inhibition [2]	activity change, negative = inhibition [3]	activity change, negative = inhibition [4]	activity change, negative = inhibition [5]
CC(C)C1c2cccn2-c2ccccc2CN1C(=O)Nc1ccccc1F (configuration not stated)	1.83%	0%	-5.54%	1.43%	5.32%
COc1ccc2c(c[n+](C)c3c4cc5c(cc4ccc23)OCO5)c1OC	-83.8%	-31.1%	-13.9%	-28.9%	-42.2%
Cc1c(Cl)cccc1S(=O)(=O)Nc1nc(CC(=O)N2CCN(C)CC2)cs1	4.16%	1.93%	9.71%	-13.3%	0.565%
COc1ccc(C2c3cccn3-c3ccccc3CN2C(=O)Nc2cccc(Cl)c2)cc1OC (configuration not stated)	14.9%	1.17%	9.13%	11.2%	11%
Cc1cccc(C2c3cccn3-c3ccccc3CN2C(=O)NCCc2ccccc2)c1 (configuration not stated)	7.19%	0%	-1.08%	0.39%	5%
Cc1cccnc1CN1CCN2C(=O)N(c3ccccc3)C[C@H]2C1	-3.65%	-2.75%	0.298%	-0.862%	1.94%
Cc1ccccc1NC(=O)N1Cc2ccccc2-n2cccc2C1c1ccccc1C (configuration not stated)	13.8%	0%	10%	0.648%	10.3%
CCN1C[C@]2(COC(=O)c3ccccc3N3C(=O)C[C@H](C)C3=O)CC[C@H](OC)[C@@]34[C@@H]5C[C@H]6[C@H](OC)[C@@H]5[C@](O)(C[C@@H]6OC)[C@](O)([C@@H](OC)[C@H]23)[C@@H]14	3.54%	3.92%	11.7%	-7.17%	6.11%
CCOc1ccc(C2c3cccn3-c3ccccc3CN2C(=O)Nc2cccc(C(=O)OC)c2)cc1 (configuration not stated)	2.15%	5.75%	8.8%	7.46%	8.89%
c1ccc2c(c1)[I+]c1ccccc1-2	-4.88%	11.2%	-26%	-21.5%	5.01%
O=S(=O)(NC[C@H]1C[C@@H]2CCN1C[C@@H]2CN1CCOCC1)c1ccccc1	-5.49%	-4.75%	-2.61%	-11.1%	-21.9%
COc1ccc(NC(=O)N2Cc3ccccc3-n3cccc3C2c2ccc(F)cc2)c(OC)c1 (configuration not stated)	-1.29%	1.06%	1.97%	-0.754%	2.93%
CCc1ccccc1NC(=O)N1Cc2ccccc2-n2cccc2C1C (configuration not stated)	4.09%	3.31%	2.22%	3.33%	7.91%
CSc1cccc(NC(=O)N2Cc3ccccc3-n3cccc3C2c2ccc(N(C)C)cc2)c1 (configuration not stated)	15.7%	2.54%	7.12%	4.99%	9.53%
C[C@@]1(C(=O)O)CC[C@]2(C)CC[C@]3(C)C4=CC(=O)c5cc(O)c(O)cc5[C@]4(C)CC[C@@]3(C)[C@@H]2C1	1.52%	7.71%	6.33%	-8.36%	4.5%
Cc1ccc(-n2nccn2)c(C(=O)N2CCN(c3nc4cc(Cl)ccc4o3)CCC2C)c1 (configuration not stated)	-3.56%		10.5%		
Cc1ccccc1CN1CCC(N2CCC(n3c(=O)[nH]c4ccccc43)CC2)CC1	-5.22%	8.21%	-8.46%	-11%	-3.65%
O=C1Nc2ccccc2C12CCN(Cc1cccnc1)C2 (configuration not stated)	-18.5%	-1.05%	-2.26%	-10.1%	-2.89%
CC1CCN(CC2CCCCCN2C(=O)Cc2ccccc2)CC1 (configuration not stated)	-7.24%	-9.34%	-5.33%	-18.5%	-14.3%
COc1ccc(C2c3cccn3-c3ccccc3CN2C(=O)Nc2ccc(C)cc2)cc1OC (configuration not stated)	13.6%	2.84%	8.68%	8.45%	10.7%
O=C(NCCN1CCC2(CC1)C(=O)NCN2c1cccc(F)c1)c1ccc2ccccc2c1	-23.1%	0.507%	-46.6%	-28.9%	-13.9%

SMILES	activity change, negative = inhibition [1]	activity change, negative = inhibition [2]	activity change, negative = inhibition [3]	activity change, negative = inhibition [4]	activity change, negative = inhibition [5]
Cc1cc(C)n(CCC(=O)N2[C@H]3CC[C@@H]2c2cnc(-c4ccccc4)nc2C3)n1	-1.62%	-3.01%	0.912%	1.43%	1.7%
CCOC(=O)CNC(=O)N1Cc2ccccc2-n2cccc2C1c1ccc(C)cc1 (configuration not stated)	5.99%	4.01%	-1.04%	-6.34%	1.15%
Cc1ccccc1C1c2cccn2-c2ccccc2CN1C(=O)Nc1cccc(Cl)c1 (configuration not stated)	6.8%	1.94%	3.4%	0.955%	0.862%
CCCN(CCC)C1CCc2cccc(O)c2C1 (configuration not stated)	8.43%	15.9%	10.3%	-3.66%	5.8%
c1cncc(OC[C@@H]2CCN2)c1	-4.98%	-13.7%	-2.25%	-23.4%	-15.6%
CCCN1CCc2cccc3c2[C@H]1Cc1ccc(O)c(O)c1-3	-82.5%	9.17%	-13.1%	-10.6%	5.3%
NC(N)=NOCCC(N)C(=O)O (configuration not stated)	7.41%	10.2%	10.5%	-6.59%	1.78%
Cc1nccc2c1[nH]c1ccccc12	-9.33%	7.02%	-12.5%	-19.1%	6.62%
c1cnc2c(c1)NC1(CCCNC1)C(=NC1CCCC1)N2 (configuration not stated)	-9.9%	-2.63%	-28.5%	-18.8%	-0.811%
CC(C)[C@@H](CN1CC[C@@](C)(c2cccc(O)c2)[C@@H](C)C1)NC(=O)[C@H]1Cc2ccc(O)cc2CN1	4.46%	8.27%	-12%	-12.1%	-0.809%
CCc1ccc(C2c3cccn3-c3ccccc3CN2C(=O)Nc2cccc(C)c2)cc1 (configuration not stated)	8.94%	4.42%	-1.16%	0.771%	1.83%
CC(=O)OC[C@]12C[C@H](OC(C)=O)C(C)=C[C@H]1O[C@@H]1[C@H](O)[C@@H](O)[C@@]2(C)[C@]12CO2	0%	7.74%	4.88%	-2.5%	6.4%
Cc1cccc(C2c3cccn3-c3ccccc3CN2C(=O)Nc2ccccc2Br)c1 (configuration not stated)	4.82%	-1.54%	0.759%	-6.24%	-2.33%
Cn1nc(-c2ccc3ccccc3c2)cc1[C@H]1CN2CC[C@H]1C[C@@H]2CNC(=O)c1ccco1	-7.01%	-8.48%	-28.8%	-13.6%	-6.36%
Cc1ccc(NC(=O)N2Cc3ccccc3-n3cccc3C2c2ccc(Cl)cc2)cc1 (configuration not stated)	-3.15%	2.68%	-0.971%	0.367%	1.12%
Cc1ccc(C2c3cccn3-c3ccccc3CN2C(=O)NCCc2ccccc2)cc1 (configuration not stated)	12.5%	0%	9.22%	11%	9.43%
CC1=CC2/C=C(\C)CCC(O)C(O)C(O)CC(=O)C23C(=O)NC(CC(C)C)C3C1C (configuration not stated)	-0.962%	-1.23%	-6.86%	-15.4%	-0.827%
Cc1ccc(C2c3cccn3-c3ccccc3CN2C(=O)NCc2ccco2)cc1 (configuration not stated)	7.42%	0.854%	3.97%	-0.644%	2.94%
Cc1cc(C)cc(NC(=O)N2Cc3ccccc3-n3cccc3C2C)c1 (configuration not stated)	7.45%	0%	3.39%	6.66%	6.12%
COC1CN(c2ccc(C)cc2)C12CCNCC2 (configuration not stated)	-1.28%	0.262%	0.462%	3.59%	2.88%
O=C(O)CCCCCCNC1c2ccccc2CCc2ccccc21	1.46%	4.32%	12.4%	-8.86%	5.52%

SMILES	activity change, negative = inhibition [1]	activity change, negative = inhibition [2]	activity change, negative = inhibition [3]	activity change, negative = inhibition [4]	activity change, negative = inhibition [5]
Cc1ccc(C)c(NC(=O)N2Cc3ccccc3-n3cccc3C2c2ccccc2C)c1 (configuration not stated)	4.43%	0%	3.51%	1.31%	-0.745%
Cc1ccc(C2c3cccn3-c3ccccc3CN2C(=O)Nc2ccc(C)cc2Cl)cc1 (configuration not stated)	7.39%	-1.02%	5.35%	-3.71%	0.438%
CN=C(NS(=O)(=O)c1ccc(Cl)cc1)N1C[C@H](c2ccccc2)C(c2ccc(Cl)cc2)=N1	5.36%	-16.8%	7.66%	-37.9%	-15.9%
CC1c2cccn2-c2ccccc2CN1C(=O)NC1CCCC1 (configuration not stated)	7.23%	5.48%	4.86%	-6.45%	4.37%
COC1(C[S@@](=O)c2ccccc2)CCN(CCc2c[nH]c3ccc(F)cc23)CC1	-0.743%	-0.784%	-1.79%	-14%	-9.88%
O=C(Nc1ccccc1Cl)N1Cc2ccccc2-n2cccc2C1c1cccs1 (configuration not stated)	8.25%	3.57%	3.73%	-3.05%	9.75%
CCOc1ccc(C2c3cccn3-c3ccccc3CN2C(=O)Nc2cc(C)ccc2OC)cc1 (configuration not stated)	0.333%	0%	-2.83%	4.63%	5.88%
CCC1c2cccn2-c2ccccc2CN1C(=O)Nc1cc(OC)ccc1OC (configuration not stated)	1.53%	0%	3.14%	-0.755%	4.16%
CCC1c2cccn2-c2ccccc2CN1C(=O)Nc1ccccc1F (configuration not stated)	-7.2%	0%	-2.09%	-4.44%	0.964%
CSc1ccc(C2c3cccn3-c3ccccc3CN2C(=O)Nc2cc(C)cc(C)c2)cc1 (configuration not stated)	3.44%	1.74%	0.988%	5.31%	6.76%
Cc1ccc(CNC(=O)N2Cc3ccccc3-n3cccc3C2c2ccc(C)cc2)cc1 (configuration not stated)	13.1%	0.249%	7.46%	9.93%	8.31%
COc1ccc(NC(=O)N2C[C@@H]3C[C@H](C2)c2c(NC(=O)CSC)ccc(=O)n2C3)cc1	-7.73%	-8.44%	-6.58%	-11.2%	-5.35%
Cc1cccc(NC(=O)NC2N=C(c3ccccc3)c3ccccc3N(CC(=O)c3ccccc3C)C2=O)c1 (configuration not stated)	0.339%	-35%	10.2%	-48.6%	-11.2%
Cc1ccc(NC(=O)N2Cc3ccccc3-n3cccc3C2C(C)C)c(C)c1 (configuration not stated)	1.39%	0%	6.89%	2.93%	7.02%
COc1ccc(NC(=O)N2Cc3ccccc3-n3cccc3C2c2ccccc2Cl)c(OC)c1 (configuration not stated)	6.96%	4.55%	8.28%	-6.87%	-2.63%
O=C(NCc1ccc(F)cc1)[C@H]1CN2CCC1C[C@@H]2Cn1cc(CSc2ccccc2)nn1 (some centres not stated)	-3.61%	-7.42%	0.634%	-9.62%	-0.339%
COC1CC(O[C@H]2CC[C@]3(C=O)C4CC[C@]5(C)[C@@H](C6=CC(=O)OC6)CC[C@]5(O)[C@@H]4CC[C@]3(O)C2)OC(C)C1O[C@@H]1O[C@H](CO)[C@@H](O)[C@H](O)[C@H]1O (some centres not stated)	4.77%	2.84%	3.3%	-8.82%	5.37%
CCCN1CCC[C@@H]2Cc3[nH]ncc3C[C@H]21	-7.77% and 3.01%	3.13% and 10%	-7.31% and 3.49%	-1.91% and -4.37%	3.4% and 1.91%
CCCCCn1cc(C(=O)Cc2ccccc2OC)c2ccccc21	1.24%	-16.3%	1.3%	-24.4%	-13.4%
